Laboratory results: patent publication US20200308274A1
Values belong to the binder of their own block, whether it stands above or below them.

Assays:
[1] = molecular target: liraglutide fibrils (human) (UniProt P01275); experiment: ELISA Assay (III-B); row labelled 0.1 uM; two-step purified antibody; A450 ratio, mean of 3
[2] = molecular target: liraglutide fibrils (human) (UniProt P01275); experiment: ELISA Assay (III-B); row labelled 30 uM; two-step purified antibody; A450 ratio, mean of 3
[3] = molecular target: liraglutide fibrils (human) (UniProt P01275); experiment: ELISA Assay (III-B); row labelled 10 uM; two-step purified antibody; raw signal, mean of 3
[4] = molecular target: soluble liraglutide (human) (UniProt P01275); experiment: as above
[5] = molecular target: liraglutide fibrils (human) (UniProt P01275); experiment: ELISA Assay (III-B); row labelled 30 uM; two-step purified antibody; raw signal, mean of 3
[6] = molecular target: soluble liraglutide (human) (UniProt P01275); experiment: as above
[7] = molecular target: liraglutide fibrils (human) (UniProt P01275); experiment: ELISA Assay (III-B); row labelled 3 uM; two-step purified antibody; A450 ratio, mean of 3
[8] = molecular target: liraglutide fibrils (human) (UniProt P01275); experiment: ELISA Assay (III-B); row labelled 1 uM; two-step purified antibody; raw signal, mean of 3
[9] = molecular target: soluble liraglutide (human) (UniProt P01275); experiment: as above
[10] = molecular target: liraglutide fibrils (human) (UniProt P01275); experiment: ELISA Assay (III-B); row labelled 0.03 uM; two-step purified antibody; A450 ratio, mean of 3
[11] = molecular target: liraglutide fibrils (human) (UniProt P01275); experiment: ELISA Assay (III-B); row labelled 0.3 uM; two-step purified antibody; A450 ratio, mean of 3
[12] = molecular target: liraglutide fibrils (human) (UniProt P01275); experiment: ELISA Assay (III-B); row labelled 100 uM; two-step purified antibody; A450 ratio, mean of 3
[13] = molecular target: liraglutide fibrils (human) (UniProt P01275); experiment: ELISA Assay (III-B); row labelled 300 uM; two-step purified antibody; A450 ratio, mean of 3
[14] = molecular target: liraglutide fibrils (human) (UniProt P01275); experiment: ELISA Assay (III-B); row labelled 3 uM; two-step purified antibody; raw signal, mean of 3
[15] = molecular target: soluble liraglutide (human) (UniProt P01275); experiment: as above
[16] = molecular target: liraglutide fibrils (human) (UniProt P01275); experiment: ELISA Assay (III-B); row labelled 0.01 uM; two-step purified antibody; raw signal, mean of 3
[17] = molecular target: soluble liraglutide (human) (UniProt P01275); experiment: as above
[18] = molecular target: liraglutide fibrils (human) (UniProt P01275); experiment: ELISA Assay (III-B); row labelled 0.03 uM; two-step purified antibody; raw signal, mean of 3
[19] = molecular target: soluble liraglutide (human) (UniProt P01275); experiment: as above
[20] = molecular target: liraglutide fibrils (human) (UniProt P01275); experiment: ELISA Assay (III-B); row labelled 0.30 uM; two-step purified antibody; raw signal, mean of 3
[21] = molecular target: soluble liraglutide (human) (UniProt P01275); experiment: as above
[22] = molecular target: liraglutide fibrils (human) (UniProt P01275); experiment: ELISA Assay (III-B); row labelled 10 uM; two-step purified antibody; A450 ratio, mean of 3
[23] = molecular target: liraglutide fibrils (human) (UniProt P01275); experiment: ELISA Assay (III-B); row labelled 1 uM; two-step purified antibody; A450 ratio, mean of 3
[24] = molecular target: liraglutide fibrils (human) (UniProt P01275); experiment: ELISA Assay (III-B); row labelled 100 uM; two-step purified antibody; raw signal, mean of 3
[25] = molecular target: soluble liraglutide (human) (UniProt P01275); experiment: as above
[26] = molecular target: liraglutide fibrils (human) (UniProt P01275); experiment: ELISA Assay (III-B); row labelled 0.10 uM; two-step purified antibody; raw signal, mean of 3
[27] = molecular target: soluble liraglutide (human) (UniProt P01275); experiment: as above
[28] = molecular target: liraglutide fibrils (human) (UniProt P01275); experiment: ELISA Assay (III-B); row labelled 300 uM; two-step purified antibody; raw signal, mean of 3
[29] = molecular target: soluble liraglutide (human) (UniProt P01275); experiment: as above
[30] = molecular target: liraglutide fibrils (human) (UniProt P01275); experiment: ELISA Assay (III-B); row labelled 0.01 uM; two-step purified antibody; A450 ratio, mean of 3
[31] = molecular target: liraglutide fibrils (human) (UniProt P01275); experiment: ELISA Assay (IV); 0.1 uM fibrils in 1600 uM soluble liraglutide; 5 nM antibody; A450 ratio to soluble-only wells

Liraglutide fibril specificity (Liraglutide fibril/Liraglutide monomer) [1]: 1.31 | Liraglutide fibril specificity (Liraglutide fibril/Liraglutide monomer) [2]: 5.57 | antibody binding signal (absorbance at 450 nm) [3]: 0.15 | antibody binding signal (absorbance at 450 nm) [4]: 0.05 | antibody binding signal (absorbance at 450 nm) [5]: 0.29 | antibody binding signal (absorbance at 450 nm) [6]: 0.05 | Liraglutide fibril specificity (Liraglutide fibril/Liraglutide monomer) [7]: 1.86 | antibody binding signal (absorbance at 450 nm) [8]: 0.08 | antibody binding signal (absorbance at 450 nm) [9]: 0.05 | Liraglutide fibril specificity (Liraglutide fibril/Liraglutide monomer) [10]: 1.32 | Liraglutide fibril specificity (Liraglutide fibril/Liraglutide monomer) [11]: 1.47 | Liraglutide fibril specificity (Liraglutide fibril/Liraglutide monomer) [12]: 10 | Liraglutide fibril specificity (Liraglutide fibril/Liraglutide monomer) [13]: 21.1 | antibody binding signal (absorbance at 450 nm) [14]: 0.09 | antibody binding signal (absorbance at 450 nm) [15]: 0.05 | antibody binding signal (absorbance at 450 nm) [16]: 0.06 | antibody binding signal (absorbance at 450 nm) [17]: 0.05 | antibody binding signal (absorbance at 450 nm) [18]: 0.06 | antibody binding signal (absorbance at 450 nm) [19]: 0.05 | antibody binding signal (absorbance at 450 nm) [20]: 0.07 | antibody binding signal (absorbance at 450 nm) [21]: 0.05 | Liraglutide fibril specificity (Liraglutide fibril/Liraglutide monomer) [22]: 3.01 | Liraglutide fibril specificity (Liraglutide fibril/Liraglutide monomer) [23]: 1.62 | antibody binding signal (absorbance at 450 nm) [24]: 0.63 | antibody binding signal (absorbance at 450 nm) [25]: 0.06 | antibody binding signal (absorbance at 450 nm) [26]: 0.06 | antibody binding signal (absorbance at 450 nm) [27]: 0.05 | antibody binding signal (absorbance at 450 nm) [28]: 1.87 | antibody binding signal (absorbance at 450 nm) [29]: 0.09 | Liraglutide fibril specificity (Liraglutide fibril/Liraglutide monomer) [30]: 1.41
B1: Antibody N (Fc fusion)
scFv: DIQMTQSPSSLSASVGDRVTITCRASQSVDYAVSWYQQKPGKAPKLLIYSASFLYSGVPSRFSGSRSGTDFTLTISSLQPEDFATYYCQQHNTTPPTFGQGTKVEIKRTSPNSASHSGSAPQTSSAPGSQEVQLVESGGGLVQPGGSLRLSCAASGFNIKDTYIHWVRQAPGKGLEWVARIAPDNGTTRYAVSVKGRFTISADTSKNTAYLQMNSLRAEDTAVYYCAREWYEASYYDWFDYFDFSDYWGQGTLVTVSSAAA[human IgG1 Fc not written out]GSHHHHHHKLDYKDHDGDYKDHDIDYKDDDDK

Antibody Specificity Ratio (Liraglutide fibril in mixture/Soluble liraglutide) [31]: 35.8
B2: Antibody G (Fc fusion)
scFv: DIQMTQSPSSLSASVGDRVTITCRASQGVTAAVAWYQQKPGKAPKLLIYSASFLYSGVPSRFSGSRSGTDFTLTISSLQPEDFATYYCQQHNTYPPTFGQGTKVEIKRTSPNSASHSGSAPQTSSAPGSQEVQLVESGGGLVQPGGSLRLSCAASGFNIKDTYIHWVRQAPGKGLEWVARIAPTSGYTRYAVSVKGRFTISADTSKNTAYLQMNSLRAEDTAVYYCAREWYEASYYDWFDYFDFSDYWGQGTLVTVSSAAA[human IgG1 Fc not written out]GSHHHHHHKLDYKDHDGDYKDHDIDYKDDDDK

Antibody Specificity Ratio (Liraglutide fibril in mixture/Soluble liraglutide) [31]: 40.4
B3: Antibody F (Fc fusion)
scFv: DIQMTQSPSSLSASVGDRVTITCRASQIVNYAVYWYQQKPGKAPKLLIYSASFLYSGVPSRFSGSRSGTDFTLTISSLQPEDFVTYYCQQHYTTPPTFGQGTKVEIKRTSPNSASHSGSAPQTSSAPGSQEVQLVESGGGLVQPGGSLRLSCAASGFNIKDTYIHWVRQAPGKGLEWVARIAPTNGTTRYADSVKGRFTISADTSKNTAYLQMNSLRAEDTAVYYCAREWYEASYYDWFDYFDFSDYWGQGTLVTVSSAAA[human IgG1 Fc not written out]GSHHHHHHKLDYKDHDGDYKDHDIDYKDDDDK

Antibody Specificity Ratio (Liraglutide fibril in mixture/Soluble liraglutide) [31]: 8.44
B4: Antibody A (Fc fusion)
scFv: DIQMTQSPSSLSASVGDRVTITCRASQGVSDAVSWYQQKPGKAPKLLIYSASFLYSGVPSRFSGSRSGTDFTLTISSLQPEDFATYYCQQHDTTPPTFGQGTKVEIKRTSPNSASHSGSAPQTSSAPGSQEVQLVESGGGLVQPGGSLRLSCAASGFNIKDTYIHWVRQAPGKGLEWVARISPTGGYTRYAASVKGRFTISADTSKNTAYLQMNSLRAEDTAVYYCARDWFDAASFAWFDFYDYSDYWGQGTLVTVSSAAA[human IgG1 Fc not written out]GSHHHHHHKLDYKDHDGDYKDHDIDYKDDDDK

Antibody Specificity Ratio (Liraglutide fibril in mixture/Soluble liraglutide) [31]: 24.3
B5: Antibody C (Fc fusion)
scFv: DIQMTQSPSSLSASVGDRVTITCRASQDVSTAVTWYQQKPGKAPKLLIYSASFLYSGVPSRFSGSRSGTDFTLTISSLQPEDFATYYCQQHSTYPPTFGQGTKVEIKRTSPNSASHSGSAPQTSSAPGSQEVQLVESGGGLVQPGGSLRLSCAASGFNIKDTYIHWVRQAPGKGLEWVARISPAGGTTRYAASVKGRFTISADTSKNTAYLQMNSLRAEDTAVYYCARDWFDAASFAWFDFYDYSDYWGQGTLVTVSSAAA[human IgG1 Fc not written out]GSHHHHHHKLDYKDHDGDYKDHDIDYKDDDDK

Antibody Specificity Ratio (Liraglutide fibril in mixture/Soluble liraglutide) [31]: 30.7
B6: Antibody D (Fc fusion)
scFv: DIQMTQSPSSLSASVGDRVTITCRASQIVSNAVTWYQQKPGKAPKLLIYSASFLYSGVPSRFSGSRSGTDFTLTISSLQPEDFATYYCQQHCTTPPTFGQGTKVEIKRTSPNSASHSGSAPQTSSAPGSQEVQLVESGGGLVQPGGSLRLSCAASGFNIKDTYIHWVRQAPGKGLEWVARIYPDGGNTRYAGSVKGRFTISADTSKNTAYLQMNSLRAEDTAVYYCVRDWFDAASFAWFDFYDYSDYWGQGTLVTVSSAAA[human IgG1 Fc not written out]GSHHHHHHKLDYKDHDGDYKDHDIDYKDDDDK

Antibody Specificity Ratio (Liraglutide fibril in mixture/Soluble liraglutide) [31]: 21.5
B7: Antibody B (Fc fusion)
scFv: DIQMTQSPSSLSASVGDRVTITCRASQDVDSAVNWYQQKPGKAPKLLIYSASFLYSGVPSRFSGSRSGTDFTLTISSLQPEDFATYYCQQHCTYPPTFGQGTKVEIKRTSPNSASHSGSAPQTSSAPGSQEVQLVESGGGLVQPGGSLRLSCAASGFNIKDTYIHWVRQAPGKGLEWVARISPYDGNTRYAASVKGRFTISADTSKNTAYLQMNSLRAEDTAVYYCARDWFDAASFAWFDFYDYSDYWGQGTLVTVSSAAA[human IgG1 Fc not written out]GSHHHHHHKLDYKDHDGDYKDHDIDYKDDDDK
